# Some of the results follow.
# B1: rCnSL-proB (Clitocybe nebularis) (protein)
# chain: PTFSPIFALLAFLPFGTLASLLPQTQLVFRINPNLPGPNDVFVGYRGTNNVVGAIYERDGIKDTPMNNGADAELGPGSYITDDLFTAQIFASGSAGNNPGTTATVCKIYADGVQWRGAPKGYLPVLYFGNGQAAEQTRQTYLQGLDIPGTAIRFANLAKTPNQGPTAPRQMVVPSGGLQTLLKASCFPANHAALPQVLSYFNVRAALPPGWNIRTGPEFPNWTN
# Experiments:
# Assay in all cases: glycan array binding signal (z-score within array); higher = stronger binding
# Conditions in all cases: glycan notation: IUPAC condensed, linker removed
# [1] = target: Gal6S(b1-4)Glc6S
# In short: (§1)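 Arrays were curated from the Consortium for Functional Glycomics database, 3228 in total, and kept only where the protein sequence was available. Binding is expressed as a within-array Z-score. This score was averaged across arrays of the same protein sequence at different concentrations or buffers and across linkers, and negative values can be read as non-binding.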
# [2] = target: Gal6S(b1-4)GlcNAc
# In short: as §1
# [3] = target: Gal6S(b1-4)GlcNAc6S
# In short: as §1
# [4] = target: GalNAc(a1-3)Gal
# In short: as §1
# [5] = target: GalNAc(a1-3)GalNAc
# In short: as §1
# [6] = target: GalNAc(a1-3)GalNAc(b1-3)Gal(a1-4)Gal(b1-4)Glc
# In short: as §1
# [7] = target: GalNAc(a1-3)GalNAc(b1-3)Gal(a1-4)Gal(b1-4)GlcNAc
# In short: as §1
# [8] = target: GalNAc(b1-3)Gal
# In short: as §1
# [9] = target: GalNAc(b1-3)Gal(a1-4)Gal(b1-4)GlcNAc
# In short: as §1
# [10] = target: GalNAc(b1-3)Gal(a1-4)Gal(b1-4)GlcNAc(b1-3)Gal(b1-4)Glc
# In short: as §1
# [11] = target: GalNAc(b1-3)Gal(a1-6)Gal(b1-4)Glc
# In short: as §1
# [12] = target: GalNAc(b1-3)GalNAc
# In short: as §1
# [13] = target: GalNAc(b1-3)GlcNAc
# In short: as §1
# [14] = target: GalNAc(b1-4)Gal(b1-4)Glc
# In short: as §1
# [15] = target: GalNAc(b1-4)GlcNAc
# In short: as §1
# [16] = target: GalNAc(b1-4)GlcNAc(b1-2)Man
# In short: as §1
# [17] = target: GalNAc(b1-4)GlcNAc(b1-2)Man(a1-3)[GalNAc(b1-4)GlcNAc(b1-2)Man(a1-6)]Man(b1-4)GlcNAc(b1-4)GlcNAc
# In short: as §1
# [18] = target: GalNAc(b1-4)GlcNAc(b1-3)GalNAc(b1-4)GlcNAc
# In short: as §1
# [19] = target: GalNAc(b1-4)GlcNAc6S
# In short: as §1
# [20] = target: GalNAc(b1-6)GalNAc
# In short: as §1
# [21] = target: GalNAc3S(b1-4)GlcNAc
# In short: as §1
# [22] = target: GalNAc3S(b1-4)GlcNAc3S
# In short: as §1
# [23] = target: GalNAc3S(b1-4)[Fuc(a1-3)]GlcNAc
# In short: as §1
# [24] = target: GalNAc4S6S(b1-4)GlcNAc
# In short: as §1
# [25] = target: GalNAc6S(b1-4)GlcNAc
# In short: as §1
# [26] = target: Glc(a1-4)Glc
# In short: as §1
# [27] = target: Glc(a1-4)Glc(a1-4)Glc(a1-4)Glc
# In short: as §1
# [28] = target: Glc(a1-6)Glc(a1-6)Glc
# In short: as §1
# [29] = target: Glc(a1-6)Glc(a1-6)Glc(a1-6)Glc
# In short: as §1
# [30] = target: Glc(b1-4)Glc
# In short: as §1
# [31] = target: Glc(b1-6)Glc
# In short: as §1
# [32] = target: GlcA(b1-3)Gal
# In short: as §1
# [33] = target: GlcA(b1-3)GlcNAc
# In short: as §1
# [34] = target: GlcA(b1-6)Gal
# In short: as §1
# [35] = target: GlcA3S(b1-3)Gal(b1-4)GlcNAc(b1-2)Man
# In short: as §1
# [36] = target: GlcA3S(b1-3)Gal(b1-4)GlcNAc(b1-3)Gal(b1-4)Glc
# In short: as §1
# [37] = target: GlcNAc(a1-3)Gal(b1-4)GlcNAc
# In short: as §1
# [38] = target: GlcNAc(a1-4)Gal(b1-3)GlcNAc
# In short: as §1
# [39] = target: GlcNAc(a1-4)Gal(b1-4)GalNAc
# In short: as §1
# [40] = target: GlcNAc(a1-4)Gal(b1-4)GlcNAc
# In short: as §1
# [41] = target: GlcNAc(a1-4)Gal(b1-4)GlcNAc(b1-3)Gal(b1-4)Glc
# In short: as §1
# [42] = target: GlcNAc(a1-4)Gal(b1-4)GlcNAc(b1-3)Gal(b1-4)GlcNAc
# In short: as §1
# [43] = target: GlcNAc(a1-4)Gal(b1-4)GlcNAc(b1-3)Gal(b1-4)GlcNAc(b1-3)Gal(b1-4)GlcNAc
# In short: as §1
# [44] = target: GlcNAc(a1-4)Gal(b1-4)GlcNAc(b1-3)Gal(b1-4)[Fuc(a1-3)]GlcNAc(b1-3)Gal(b1-4)[Fuc(a1-3)]GlcNAc
# In short: as §1
# [45] = target: GlcNAc(a1-6)Gal(b1-4)GlcNAc
# In short: as §1
binder,measurement,setting,value
B1,glycan array binding signal (z-score),[1],-0.411
same,glycan array binding signal (z-score),[2],-0.518
same,glycan array binding signal (z-score),[3],0.042
same,glycan array binding signal (z-score),[4],-0.537
same,glycan array binding signal (z-score),[5],-0.287
same,glycan array binding signal (z-score),[6],0.348
same,glycan array binding signal (z-score),[7],-0.694
same,glycan array binding signal (z-score),[8],-0.441
same,glycan array binding signal (z-score),[9],-0.449
same,glycan array binding signal (z-score),[10],-0.255
same,glycan array binding signal (z-score),[11],-0.531
same,glycan array binding signal (z-score),[12],-0.883
same,glycan array binding signal (z-score),[13],-0.26
same,glycan array binding signal (z-score),[14],-0.165
same,glycan array binding signal (z-score),[15],0.093
same,glycan array binding signal (z-score),[16],-0.543
same,glycan array binding signal (z-score),[17],3.38
same,glycan array binding signal (z-score),[18],-0.589
same,glycan array binding signal (z-score),[19],-0.236
same,glycan array binding signal (z-score),[20],-0.354
same,glycan array binding signal (z-score),[21],-0.48
same,glycan array binding signal (z-score),[22],-0.325
same,glycan array binding signal (z-score),[23],-0.381
same,glycan array binding signal (z-score),[24],-0.116
same,glycan array binding signal (z-score),[25],-0.311
same,glycan array binding signal (z-score),[26],-0.245
same,glycan array binding signal (z-score),[27],-0.184
same,glycan array binding signal (z-score),[28],-0.465
same,glycan array binding signal (z-score),[29],-0.248
same,glycan array binding signal (z-score),[30],-0.648
same,glycan array binding signal (z-score),[31],-0.778
same,glycan array binding signal (z-score),[32],0
same,glycan array binding signal (z-score),[33],-0.557
same,glycan array binding signal (z-score),[34],0.323
same,glycan array binding signal (z-score),[35],-0.149
same,glycan array binding signal (z-score),[36],-0.717
same,glycan array binding signal (z-score),[37],-0.652
same,glycan array binding signal (z-score),[38],-0.344
same,glycan array binding signal (z-score),[39],-0.497
same,glycan array binding signal (z-score),[40],-0.308
same,glycan array binding signal (z-score),[41],-0.686
same,glycan array binding signal (z-score),[42],-0.819
same,glycan array binding signal (z-score),[43],-0.401
same,glycan array binding signal (z-score),[44],0.803
same,glycan array binding signal (z-score),[45],-0.122
